In article PMC6643034:
No constants are given. Whether binding was seen depends on the method and setting. Some entries that bind do so weakly or less than the wild type.

Legend:
[1] = target: T1, P1142_AMBCA displayed on yeast (Amblyomma cajennense); assay: flow cytometry on cells; yeast surface display; individual yeast clones displaying an evasin labelled with biotinylated chemokine plus streptavidin-AF647, against streptavidin-AF647 alone or control yeast with the display tag alone; only the binder purified
T1 sequence: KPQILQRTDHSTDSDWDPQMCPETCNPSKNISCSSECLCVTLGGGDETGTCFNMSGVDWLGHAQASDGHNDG

[2] = target: T2, P1126_AMBCA displayed on yeast (Amblyomma cajennense); assay: as above
T2 sequence: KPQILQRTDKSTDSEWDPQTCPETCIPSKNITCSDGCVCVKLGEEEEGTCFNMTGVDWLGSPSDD

B1: biotinylated CXCL7 (ligand, UniProt P02775 59-128)
chain: AELRCMCIKTTSGIHPKNIQSLEVIGKGTHCNQVEVIATLKDGRKICLDPDAPRIKKIVQKKLAGDESAD
modifications: biotin
[1]
  binding: binds
[2]
  binding: binds
